Assay results: the BET-seq Pho4 binding data (Le et al. 2018)
Some of the results follow. These are noisy estimates, calculated here from bound and input reads.

Molecular target: T1, Pho4 (S. cerevisiae) (UniProt P07270)
T1 sequence: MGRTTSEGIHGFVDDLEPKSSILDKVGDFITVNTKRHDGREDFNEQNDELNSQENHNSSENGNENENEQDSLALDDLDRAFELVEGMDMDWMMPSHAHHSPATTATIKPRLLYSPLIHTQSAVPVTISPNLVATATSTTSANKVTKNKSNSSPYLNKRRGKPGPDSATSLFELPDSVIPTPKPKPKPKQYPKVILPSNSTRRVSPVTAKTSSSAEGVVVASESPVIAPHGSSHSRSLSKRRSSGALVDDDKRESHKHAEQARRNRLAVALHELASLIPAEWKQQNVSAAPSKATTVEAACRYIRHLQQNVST
Experiment: relative binding free energy (BET-seq); higher = weaker binding
Settings: reference: library average

Sequence	relative binding free energy [kJ/mol]
TTCATCACGTGGTTTT	0.628
GTTAGCACGTGATTGT	0.628
AGTAGCACGTGCAGTT	-0.711
AATTCCACGTGAGGTG	1.05
GTGGGCACGTGGTTCG	-0.251
TTTTTCACGTGATAGC	1.38
GGATTCACGTGTTGTA	1.55
TAAGGCACGTGGATAT	-0.418
TTTGCCACGTGCTTGT	-0.711
TCTGACACGTGTGGTG	0.0837
TGGGGCACGTGAGGCT	0.418
TTTAACACGTGATAAG	0.0837
TATATCACGTGGGAAT	0.293
ATGTCCACGTGGTGGT	-0.293
CGTGTCACGTGTATTT	0.46
GGTGTCACGTGGTGGT	0.335
TTAACCACGTGTGATT	0.879
GGTCACACGTGGGTGG	0.209
AGGTGCACGTGTGGGA	0
AATTCCACGTGTGGGG	0.377
TGATACACGTGAGGCG	1.76
TGGTTCACGTGTGCCT	1.17
AAGTGCACGTGTTTGT	-0.126
TATTTCACGTGTGTCG	1.42
CGGGGCACGTGGGGAC	-0.502
TATAGCACGTGATTTT	-0.0418

Sequence	relative binding free energy [kJ/mol]
GTGTGCACGTGCGCTT	-0.711
TTTGTCACGTGTTTAC	0.586
ATATCCACGTGTTGTT	-0.209
GGAGTCACGTGCTGGT	0
TATGTCACGTGTATAT	0.167
GTTTACACGTGAGGTC	1.84
TGGGGCACGTGGGATG	-0.628
TGGGTCACGTGTTGAT	0.251
AAACGCACGTGTTTGG	-0.0837
AGATGCACGTGGTTAT	-0.418
GTATACACGTGGGTTG	-0.502
GTATGCACGTGTCGGC	0.879
CAGGGCACGTGTGGAG	-0.0418
TCATGCACGTGGGGGC	0.0418
ATTTTCACGTGATGTT	1.3
TGGTGCACGTGCTAGC	0.167
GTATGCACGTGGAATA	0.753
AGGTTCACGTGGTTGC	0.879
CGTGGCACGTGCGAGG	-0.377
TTGTTCACGTGTTCAC	1.13
ATTGACACGTGTGGTT	0.418
GCTATCACGTGGAAGG	0.879
TTAGGCACGTGTGACT	0.418
AATTGCACGTGTAGAA	0.669
TGGGGCACGTGTAGTG	-0.0837
CAGTTCACGTGTTGAT	0.753

Sequence	relative binding free energy [kJ/mol]
TAGTCCACGTGGGGAG	-0.418
AGGTTCACGTGTTTCT	1.51
CGTATCACGTGGGCTT	-0.167
TGGTTCACGTGCTTGA	0.879
TTTCGCACGTGTTGTC	0.795
GGGACCACGTGACGGG	0.544
GGGCACACGTGTGGGC	0.167
GGTGACACGTGGGGGT	-0.377
AGCATCACGTGATGTT	1.26
GTGTTCACGTGGCACG	0.795
ATAGTCACGTGGTGCT	0.251
TCTTTCACGTGATGGC	1.72
ATTGTCACGTGGTTCG	0.544
GTACTCACGTGATGGT	2.05
GGTCACACGTGACGGG	0.628
TGTTGCACGTGAGCGC	0.795
TTGCTCACGTGTGAGA	1.76
TTTAGCACGTGTAGCA	-0.126
TGTGTCACGTGAAGAT	1.38
GGAAACACGTGAATGG	1.17
GTCGTCACGTGTGCGT	1.09
GATGTCACGTGAGGAA	1.67
GTGATCACGTGAGTGC	0.879
GGGGACACGTGTTTCT	-0.167
TGTATCACGTGATGAT	1
ACGAGCACGTGGTGGA	-0.502

Sequence	relative binding free energy [kJ/mol]
ATAAACACGTGTCGGT	0.126
CTTGGCACGTGTGGTT	0.46
CATTGCACGTGTTTGG	-0.0837
TGTGTCACGTGTCAGA	0.544
GTGGACACGTGGGGGA	-0.753
TATTGCACGTGAAAGG	1.09
TCTATCACGTGGGCGT	0.167
AGTTGCACGTGGGATA	-0.293
TTACACACGTGGCGGT	-0.0837
TTGTGCACGTGTGAAA	0.418
TGGATCACGTGGAATG	0.669
TATCTCACGTGTGGTA	1.26
GTGGGCACGTGTCCGT	-0.167
CCGGCCACGTGTGGTG	-0.251
GAGATCACGTGTCAGG	1.38
TTATTCACGTGTTCGT	1.42
GGTGCCACGTGGGCGT	-0.377
TTGTTCACGTGGTGCC	1.26
TTGGACACGTGCGTCT	0.628
GATGGCACGTGGGTTC	-0.335
GGGGGCACGTGAGTAA	0.669
GATTGCACGTGTGTGG	0.628
TATATCACGTGGTCTG	0.795
TTTTGCACGTGAACAG	0.711
GGCGTCACGTGAATTA	2.01
AGGGTCACGTGTTGGA	0.377

Sequence	relative binding free energy [kJ/mol]
ATTTGCACGTGTGAGT	0.377
CTTTTCACGTGTGGTC	1
GATACCACGTGGGGTT	-0.335
TTAGTCACGTGCTGTG	0.0837
TATTTCACGTGAGCGA	1.8
TGTGTCACGTGTTACA	0
ATTTACACGTGTTAGC	0.502
TGGTACACGTGGTGCT	-0.669
TCGGTCACGTGATGCG	0.962
GGTGGCACGTGAGTTG	1.21
ATCGGCACGTGGGAGT	-0.293
TTGGACACGTGGGTAA	0.0418
TTAAGCACGTGGTGCA	-0.92
GGCTTCACGTGGATAG	1.51
AAAAACACGTGTTTGG	-0.293
GACGGCACGTGTGGGC	0.377
TGAGCCACGTGCGGTA	-0.335
AGGGCCACGTGGCGGT	-0.628
GATTTCACGTGGGGTT	1.42
TTAGGCACGTGTGTTA	-0.209
GAATTCACGTGTATGA	1.38
CGTTGCACGTGGGCGC	-0.544
TGCATCACGTGTTGTT	0.837
GGTTACACGTGCGTGT	0.544
TGATGCACGTGCTTGG	-0.126
TCGTACACGTGTCTGG	0.502

Sequence	relative binding free energy [kJ/mol]
TCGGGCACGTGGGTGT	-0.837
TTTTCCACGTGCGTGG	-0.209
AGCGTCACGTGAAGTA	1.3
TGGTGCACGTGCATGC	0
CGGGTCACGTGCTGGC	0.377
CGTGACACGTGTTGAG	-0.502
GGCGTCACGTGCGTGC	0.418
ATTCGCACGTGATGGG	0.335
GATGGCACGTGCAGGG	-0.586
GAGGTCACGTGTAGCG	1.05
GGTATCACGTGATTCG	0.753
TCGTTCACGTGGGGAT	1.09
TGTTCCACGTGTGGGG	0.335
GAAGGCACGTGAGGGT	0.962
ATTCGCACGTGTTTCT	0.251
TCCTGCACGTGTGGGG	0.209
GAGTACACGTGCGTTT	0.711
CTTGTCACGTGGCTTG	0.251
GGTCTCACGTGATGGC	1.63
GGCGACACGTGGAGTT	0.753
GTTCACACGTGGAAGG	0.92
AAAGTCACGTGTCTAT	0.879
ATGAGCACGTGGGAGT	-0.837
TATAGCACGTGCTGGC	-0.126
TGGTACACGTGTAGCG	0.753
GGTTGCACGTGGCTTG	0.0837

Sequence	relative binding free energy [kJ/mol]
ATTTTCACGTGTATCT	0.586
TGTTTCACGTGCTGGC	0.544
TAATTCACGTGTTTAC	1.76
TAGGTCACGTGGCTAT	-0.418
GGTCGCACGTGGGGCT	-0.628
GATTTCACGTGGTTTG	1.42
GTAGGCACGTGTTAAG	-0.418
TTCCGCACGTGGCGGG	-0.586
TTGGTCACGTGTACTT	0.669
TGTAGCACGTGATGAA	0.377
TCTAACACGTGTGGGG	0.418
TCTGGCACGTGGCGTG	-0.879
GATGTCACGTGATACT	1.92
AATGGCACGTGAGTTG	0.669
CTGGGCACGTGTGGAA	-0.753
ACGAGCACGTGGGGAT	-0.167
AATGACACGTGTGTTA	0.126
AAAGGCACGTGTGTGA	-0.962
TGCGTCACGTGTTGCG	-0.418
ACTGGCACGTGGTGAT	-0.251
AGGAACACGTGTATGG	0.209
ACATTCACGTGGTTTG	0.92
ATTTGCACGTGGGCTG	-1.21
CAGAGCACGTGGGGTG	-1.05
AATTCCACGTGGTTGT	-0.0837
CAGGTCACGTGAGGTC	1.63

Sequence	relative binding free energy [kJ/mol]
GGGTGCACGTGTTGGT	0.251
TGGGCCACGTGTGGAA	-0.209
AGACGCACGTGTGTGA	0.209
AAGTTCACGTGGTCGG	0.962
TGGGTCACGTGGTAGC	0.46
TGGGTCACGTGATAGT	0.502
GGCATCACGTGTAGTT	0.837
TAGATCACGTGAAGAT	1.67
GATTTCACGTGTTAGG	1.63
GGTGCCACGTGATTGA	0.586
TCTTTCACGTGTGGGC	0.962
TGTAACACGTGAGGTA	0.795
CGCTTCACGTGCGGGT	0.628
GTGTTCACGTGATTGA	2.05
ATTTACACGTGGAGGT	0.0418
GGAAGCACGTGCTTTG	-0.0837
GGTAACACGTGGGAGG	0
GTTTTCACGTGTATAG	1.46
GTCCTCACGTGGGGTA	0.837
ATATTCACGTGTGAAG	1
TGTGGCACGTGGTCGG	-0.879
GGATGCACGTGATTGT	0.377
AGCATCACGTGGGGGT	-0.0418
GCGGGCACGTGGGTAG	-1.21
TATTTCACGTGAAAGG	1.38
ATAGGCACGTGACTAG	0.0837

Sequence	relative binding free energy [kJ/mol]
TAGTACACGTGTGAAT	0.669
TGGTTCACGTGGAGAG	1.13
AAGAGCACGTGTTAGT	-1.05
ATTGTCACGTGATCGG	0.0837
TTCTGCACGTGAAGAG	1.67
GGGTTCACGTGTATCG	0.879
ATATGCACGTGGATGT	0.0418
ATGTGCACGTGAGGAG	0.0837
TGGGGCACGTGCTATC	-0.0418
TATAACACGTGGGTTA	-0.92
ACTGGCACGTGTGTTT	-0.335
GTGGCCACGTGGTTTG	-0.711
TGGTTCACGTGCAATG	1.34
ATGGACACGTGATTGG	0.209
TTGTTCACGTGGGCGC	0.711
AAGAGCACGTGTCTGG	-0.586
AGGATCACGTGCGGGT	0.502
GGGGTCACGTGGGTGT	0.46
GTTCGCACGTGGTACG	-0.377
AAGCGCACGTGTGTGT	-0.209
AGGTTCACGTGAGATG	2.38
AAGGTCACGTGTTAAT	0.962
